Experimental data taken from paper PMC10726135.
The other results are listed elsewhere or left out. At the low end of the ranking the order means little. Measured with an extract: partners may take part in the binding.

Target: T1, HNF4alpha8 (COS-7 nuclear extract) (UniProt P41235-5)
T1 sequence: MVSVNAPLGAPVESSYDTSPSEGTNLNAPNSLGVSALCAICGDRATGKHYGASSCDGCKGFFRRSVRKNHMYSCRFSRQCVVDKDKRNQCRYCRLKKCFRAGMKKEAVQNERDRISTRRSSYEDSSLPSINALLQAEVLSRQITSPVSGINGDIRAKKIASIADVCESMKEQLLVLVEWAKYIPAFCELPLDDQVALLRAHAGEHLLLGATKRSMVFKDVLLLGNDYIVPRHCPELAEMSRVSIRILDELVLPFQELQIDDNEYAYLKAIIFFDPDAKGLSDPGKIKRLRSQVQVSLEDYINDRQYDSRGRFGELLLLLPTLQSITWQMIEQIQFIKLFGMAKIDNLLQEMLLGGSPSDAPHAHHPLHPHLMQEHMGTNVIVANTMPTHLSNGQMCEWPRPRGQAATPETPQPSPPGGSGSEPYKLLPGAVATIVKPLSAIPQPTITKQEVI
Assay: protein-binding microarray
Conditions: COS-7 nuclear extract on double-stranded Agilent 4x180k PBM; binding buffer, salt, pH and temperature not given; high values mean tight binding; double strand, one strand shown; sequences stand for … in …GCCTAGGGAGATTAGAGTATCGGTCGA

| Sequence | binding signal (log2 normalized intensity) |
| --- | --- |
| CCAGCCTGTCGGAATTTGCCCTGTGGTCTA | 3.59 |
| CCTGGTAGTGCGACAAGAATGTGGTTCTTT | 1.14 |
| ATATTAACCTTTGCCCCAGCTGTCACCCAG | 5.72 |
| GCTCTGTGCCTTGTATTTCAAAACTGATAA | 0.224 |
| ATGCTGGGGACCTTTGGCCTTTACCTGTTA | 5.47 |
| GAACTTTTACCTAATGTTCACAATAAGAGG | 0.562 |
| GAGTTGAGTTGGAGAAGAGCAAAGATCATC | 2.46 |
| AGCATGCTTCCCAAATGGAGTGCCCTAGGA | 1.55 |
| GCTCGGCTCGCTCTCCCTGCTGGCCTGGGA | -1.26 |
| GCTTTAGATATCAGAAATGCATGAGTGACC | 2.64 |
| TAATTGAGTAACCAGCTGCCTCTTGTGTTC | 1.16 |
| TCGCGCCCCAACGGATACCTCTTTGAACTG | 1.45 |
| ACTGATTCTCCAGGAAGTTCAGGCCTCGGC | -1.28 |
| ACCAAATGGGAACATTCCTCAGGGAATTTC | -1.27 |
| CCTTATGACGGACAAAGGGCTCTCTCACCA | -1.21 |
| GTCAGAGATTTCTTTACCATACCAGATGAA | 0.211 |
| TTATGTTGGCACTTCTCTCGGCCTTAAGAG | -1.49 |
| ATAGAGATTGCTTAATGCAAACTCCAGCAT | -1.35 |
| AGTGGCTTCATTCCCGAGTGCCTTTAGAGG | 1.32 |
| TCACCAATGGTAACTGAAAGTCATGCTGAA | -1.41 |
| ATGACAGTACCTCTCAAAAATCTCACTCAC | -1.27 |
| CTGAGCTGGCAGGGAGGAGGGATCAAGCAG | -1.5 |
| GTTTAGGAGGAAATAGAGAGCAGACAGGGG | -1.36 |
| GGTGGACCAAAACACTTGTGTCAACCGTGT | 0.396 |
| AAAGATAATATTTTTGACTTACCATTTGCT | -1.34 |

| Sequence | binding signal (log2 normalized intensity) |
| --- | --- |
| TACACAGAAGTTAATTTCAAAACAAATAAA | -1.28 |
| CCTCAATGCTATCTCCCAGTTCTTTTGACC | 2.7 |
| GGGGGCGACCTGCTGGACGGGAGGAAAACT | -1.36 |
| TGCAACCAGTTGGTGGGTCAAGGTGCAAAG | 3.74 |
| CTCCCCACAAATTCTGTACTTCAACCAGGT | 1.91 |
| CACTGCTCACAGGTTGTACTATGACCCAAA | 6.03 |
| TAATGAGGCCACTCCTGATAGCTAGAGAGT | -1.39 |
| GCCTGCAAGTTCAAAAGGACTCCCAGAGCA | -1.27 |
| CTTTCCACTCCCATTACTTCTGTTTGCATT | 0.958 |
| AGAGTTAATAACAGACCATGCCATGCATTT | -1.33 |
| GGCTAGAAAAGAAGGATAGAGAGTTGGGAG | -1.38 |
| GTGTTCAGAGCTTGCTGCATTCCCCCACCT | 4.43 |
| CCGTCCTGTCCTGGACTTTCCTTTGTTGGG | 2.84 |
| CATGAGAGAAAAGAATAAAATTGTACTTCG | 1.63 |
| CCAGGGTGAGAGGGACCCTTCCTCGGTGGA | -0.795 |
| CCCTTGGAATGTGACCTTAGACCCCTGAAT | 6.49 |
| GATGATCAAAGGTCAGTCTTAGGACCACAT | 4.92 |
| ACCTCCCCTCTGACCAGAGACATTCCAACC | 2.18 |
| CTAAGAGAAATCCACACAGCACTGACCTTT | 6.82 |
| CATGTAACCCCTTTTCAATTCCTTATCTCG | 1.36 |
| GAATCAAGGCAAGCCTTATCACTGTTTGGC | -1.23 |
| GTTATCCCTAGGAAGGATAAGAGCAAGAAA | -1.37 |
| CCAAAAACAAAACTGGTCATACAGCCTGAC | -1.24 |
| AAGGGAGCACAACCCGGGCGCACAAGATGC | -1.3 |
| CAGAGAGAGAGAGAGAATGACCCTTGCTTG | 4.14 |

| Sequence | binding signal (log2 normalized intensity) |
| --- | --- |
| GCTGTGTGAAGTGACTTGCCCTGTTCACAT | 2.25 |
| GGCTCAACGGGTTAGACGCACGGCAGAGCA | -1.26 |
| GAATTCTTGTCCAACTCCCCTCCCAAGGCA | 4.44 |
| AAGCAAGCTCTGCAATAGAGCCACATTCTG | -1.31 |
| GACAAAGGCTTTGAGTCAACACACCTGTGG | -1.24 |
| TTCAGCCGCTTTGAGGTCAATGGTAGAAAA | 1.85 |
| AAGATAAAAATCAGAGATCAAGATACAGGT | -1.16 |
| CATCTGAACTCTTCATGGACTCCTCTTATC | 2.06 |
| AAGAGGAAAAAGTGGCTTTTTAGGAAACAT | -1.22 |
| TGTTAGAATGTATTGAGAAGAAACCTTTGC | 2.48 |
| CCTATACAGACCTTTGTATATTCCCTTTGT | 2.06 |
| GTCACTGCTCAAAAACACTCAGTTAATTAT | -0.0424 |
| CAGGGTTCATAGATGATAGTGATAAGGATC | 1.15 |
| CTTGAGGCTGTCTGCTATGCAGAGCTCTTT | -1.18 |
| GTGAGCTGTCTAATTTTGCACAGCCAGCCT | -1.52 |
| TACATGAGTGATCCTGAAAACAAATAGAGC | -1.27 |
| CGCATCTTTTATAAGGGGCAGCAAACCTAC | -1.4 |
| TGTCCGTTCCTGCCTGGAGCCACTGAAGTG | -1.26 |
| TGCTCCCTGCCCCTACCCCCACCCTGTGTT | 5.58 |
| TCCAGAGATGCCAGGAGAGCCGAAGCAGTC | -1.19 |
| CAAAGGGCATCAGCCCCAATGGCTAAGGTC | 1.89 |
| CACCAAAAATCACTTGGATAGCGCGTGGCC | -0.707 |
| CCCAGGGAGAAAGGTCAGGGGCAGGGTCGC | 2.28 |
| CAAGGTCCAGGAGGTCGCTGGAAAGGCGGC | 0.399 |
| AGTCCATTCCTTGGACTCTGCCACTGGTTT | 3.48 |

| Sequence | binding signal (log2 normalized intensity) |
| --- | --- |
| AGGAGGAGACAGACTTATCGGGTAGGCAAG | -1.3 |
| CTGCTTTTGGAATTTGACCTCATTTGCTCC | 6.52 |
| AGCTTTGATAGTCTGCTACCATCAGATAAG | -1.29 |
| CTGAGCCAGCACTTCGACCTCACATTGTAG | 1.99 |
| TTTGCCTCATTCTTATTGCCTCATGTTTGC | 1.9 |
| TCATTACTGACAGAGATCAAAAACCAAAGC | -1.34 |
| CTTTAGCATATTACACCTGTAGCTTCCGAA | -1.25 |
| CTGGAATCACGTTCGCCTAATTTGAAGCAT | -1.1 |
| CTATCTTATCTGGGCCAGGTATTTGGACTT | 4.76 |
| TAGAACAAAGATCAAAGCAGTATCATCAAC | -1.24 |
| CCTCTGAAAGCACTTGTAGGCCTGTGTGCA | -0.43 |
| TTTCAGATGGACCAAAGGTCTTGTACAAAG | 2.74 |
| TTCCTCCTGGCCTCTCTGAGCAGCCTTCCC | -1.34 |
| TTCCATAGATAAGAGCTGAGGAAGTGCTGA | -1.25 |
| CCACCAAGGACTGGACCACCTCCTCAAAGA | -1.32 |
| AGCTGCTGGCAGGAATTTTAAAAGTATACT | -1.12 |
| AACTTTGCAGCAGATAATTACCTGGACTCT | 3.94 |
| AAGAGTTAAAAAAAAAAAAAACTATCAAAC | -1.27 |
| TTTGATCCTGATGACTGCAGAGCTTGCTCT | -1.23 |
| GTAGATTAAATCCTCGAAGAGTTTGAACTA | 1 |
| CCGGACATGGAGAGGTGAGACACGTGTGCC | -0.118 |
| TACACACATTCCAATCTTCTTTTCCAGTCT | -0.344 |
| TTATTAGTCCAAGAGATTTCTACAGATAGC | -1.14 |
| GGGCCCCAGGGGACGTGGAATAGATCAGCT | -1.18 |
| GGGGACTGCCTCTTCAGGAGGCACTGATAA | -1.23 |

| Sequence | binding signal (log2 normalized intensity) |
| --- | --- |
| CAGACTGGTGCTATGTCCCTGACTGTGTGG | 1.14 |
| CCCAGGTCCTTTGGTCTGGCATTCAGCGCC | -0.913 |
| AGGTCACAGCATTAGAGCAACCAGAATGTT | -1.29 |
| AGGAAAGGGCTTTGGGGACTGAAGACTTTG | -1.28 |
| CCTGAAGCTGCCCTTTGCACATGCCCCTCC | 5.07 |
| CCAGGAGAGCCGAAGCAGTCAAATGACCCT | 4.77 |
| CACGTCTCAAGCTTCAGGAGTCCACTGTGT | 1.89 |
| GCTCATGCAGCTGCTGCCCAAAGGTCACCT | 5.82 |
| AGTTCATAGCAAAGTTTTTGTTCAATATGC | 1.24 |
| TCACTGCTGGTGGGTGGGGGAAGTGTGGTC | 1.35 |
| TCAGTCTGAGATAGTCATTCTTCTACAGTG | 0.384 |
| CTAAGTCTTTCCACACAGCCTGTCAAAGGG | 0.314 |
| TGTAGGCCGTAACTGTCTCTGTTGCTCAAT | -0.232 |
| GAGGGCGCTGTTGATGGGCAGCGCGGCGCG | -1.39 |
| CCCATTCTGTGCTGGCCCTGGGGGTGGGGG | -0.34 |
| GTGGGAGGGAGGCTTTTGCAGTCACTCTCT | -1.39 |
| TGAACCAATGCCACAGAAAAGGCAGCAGCT | -1.35 |
| AAGGAATGTAATGTATGCATAGACTGCCCA | 1.18 |
| CCTTTCCCTTATCTTTGTTATCTGTTGGTT | 2.03 |
| CTCTGAAGTTTAATCCTCTCACCCAAGATC | 2.13 |
| GACTCTGAGCCTCCTCCCTCTCTCTCTTAA | -0.662 |
| ATGAGTCTTGGGAATGAATCAGAATTTGGA | 0.665 |
| CTGAAGCATGCTATTTCAGGAATGTGACCC | 4.95 |
| GCCTCGCCCTGCTTCGGCTCGCGCACGGTG | -1.29 |
| CCCCTGCAATACAGCCTTGTTTACAACGCT | -0.957 |

| Sequence | binding signal (log2 normalized intensity) |
| --- | --- |
| AGCGGGGCCTCTGTGTGGGGCTGATAAGGC | -1.42 |
| GACTGCAGAGATTGGAATCTCTGCACAGCA | -1.29 |
| AAATGCATTTCCTTATTCTTAACAAGCTGA | -1.37 |
| CAGAAAGTGACGTGCAGAGGAGCAACTCAT | -1.39 |
| AAGGCTCTTTGTTCAGAGGGCATGTTGAGT | 1.8 |
| CTATTTCAGGAATGTGACCCCTTTCATGAA | 4.4 |
| TCTTACCCAACCAAAAACAAAACTGGTCAT | 2 |
| CTTTGGAGTTTACTTTAGATGTGTTTGAGT | 1.94 |
| TTTTATTTTCCCCCTTTGAAGTCTGCCCTC | 4.94 |
| GCAGGAGCCCAAGAAGCGTCAGTTGCCTCG | -1.4 |
| TTTGACCTTAAGTCAGAAGAACTGATTCCA | 1.63 |
| GCCTTGCAGGTTCTCAGAAACGCCTGGCGC | -1.26 |
| CCAGGGGACGTGGAATAGATCAGCTTTCAA | -1.3 |
| GCTCAAGTCTTTTAGAATGTGGATGGGCTG | -0.117 |
| AAGAAACATTTTACAACCTATTCTCTCTGA | -1.31 |
| TTTCTGAGGAGCTAACAGTAAAACTGAGAT | -1.23 |
| GTCAGATGACAGAATTGGTCCTGGAACTCA | 0.192 |
| ACTGCCTGACCCCAAGTAATAGCCGTTTCT | 1.4 |
| TGAGGATACCAGAAATTCCATGATTTTCTG | -1.31 |
| AAGCAGCATTCCACCAAATCTTACCTAAGG | -1.24 |
